Results taken from PubChem BioAssay AID1508623 (National Center for Advancing Translational Sciences (NCATS), 2021).
The campaign covered roughly 48,000 compounds. About 450 (0.94%) were called active. Inconclusive results (about 19%) are left out. Calls come from the whole dose curve; as a rule, active = well fitted inhibition curve with a large enough effect; inconclusive = small, poorly fitted or top-dose-only effect; inactive = no such curve, though single readings can be large or run the other way. Some of the results follow.

Test: Primary qHTS for Identification of Small Molecule Inhibitors of Huntingtin Promoter Activity; note: nearly all actives have a fitted effect of over 50% in size
Conditions: HEK293 HTT promoter firefly luciferase reporter (activity 0% = vehicle and -100% = no light), 24 h; series mostly up to 57.5 µM; activity change, negative = inhibition: at the top concentration
Summary of the method: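 HEK293 luciferase promoter-reporter cells (2,500/well) plated 24 h, then compounds added at up to 57.5 uM final for 24 h at 37 °C. Firefly luminescence by Dual-Glo, normalized to vehicle (0%) and zero RLU (-100%).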

Activity change, negative = inhibition, inactive:
CCOc1ccc(-n2c(SCC(=O)N3CCc4ccccc43)nc3c([nH]c4ccccc43)c2=O)cc1 -5.62%
COc1ccc(NC(=O)Cn2c(=O)c(-c3cc(C)ccc3NC(C)=O)nc3ccccc32)c(OC)c1 1.94%
Cc1cc(C)cc(NC(=O)C(=O)NCC(c2ccc3c(c2)OCO3)N2CCN(C)CC2)c1 (stereo not given) 32.9%
O=C(COc1ccccc1)NCc1ccc2c(c1)CCN2C(=O)c1ccc(Cl)cc1 -15.2%
COc1ccc(NC(=O)N(CCC(C)C)C(C)c2cccs2)c(OC)c1 (stereo not given) -23.8%
Cc1cc(=O)[nH]c2nnc(SCC(=O)Nc3ccc(OC(F)(F)F)cc3)n12 -16.7%
COc1ccc(OC)c(NC(=O)c2cc(-c3ccc(Cl)s3)nc3ccccc23)c1 -0.493%
NCc1nc2cccnc2n1Cc1ccccc1Cl -7.66%
COc1ccccc1CNC(=O)CCc1c(C)nn(-c2ccc(N3CCOCC3)nn2)c1C -15.9%
O=C(NCc1ccco1)c1ccc2c(c1)N(Cc1ccccc1)C(=O)c1ccccc1S2(=O)=O -19.7%
COCCNc1ncnc2c1c(-c1ccccc1)cn2-c1ccc(C)c(Cl)c1 -28.3%
COc1ccc(-n2ncc3c(NC(C)(C)CO)ncnc32)cc1 -22.2%
CCOc1ccc(NC(=O)Cn2c3ncccc3c(=O)n2-c2ccc(CC)cc2)cc1 -8.91%
Cc1ccc2onc(CC(=O)N3CCN(c4ccc(F)cc4)CC3)c2c1 -14.1%
CC(C)CC(=O)N1c2nc(C(C)C)nn2C2(CCCCC2)[C@@H]2CCCC[C@@H]21 -8.25%
CN(CCCNC(=O)c1cc2c(Cl)nc3ccccc3c2s1)Cc1ccccc1 -9.1%
COC(=O)c1c(NC(=O)c2cc3ccccc3c(=O)o2)sc2c1CCCC2 0.894%
CCN(CC)CCNC(=O)c1c(C)oc2ncnc(N3CCOCC3)c12 -1.8%
Cc1cccc(C)c1OCC(=O)Nc1ncn[nH]1 -18.1% [at 11.5 µM]
CCOc1ccc(CCNC(=O)c2cnc3sc(N(CC)CC)nn3c2=O)cc1OCC -3.86%
Cc1cc(C)c(NC(=O)Cn2cc(S(=O)(=O)Cc3ccccc3F)c3ccccc32)c(C)c1 -12.8%
COc1ccccc1NC(=O)N(Cc1nnc2n1CCCCC2)c1ccc(F)cc1 -10.1%
COc1ccc(NC(=O)Cn2nnc(C(=O)NCCc3ccccc3)c2N)cc1 -18.8%
CC(=O)c1cccc(NC(=O)C(C)n2c(=O)cc(C)c3c(C)nn(-c4ccccc4)c32)c1 (stereo not given) -9.57%
COc1ccc(CCNC(=O)c2ccc(Nc3nc4ccccc4n4nnnc34)cc2)cc1OC -15%
O=C(NCCc1ccccc1)c1ccc2c(c1)N(Cc1ccc(F)cc1)C(=O)c1ccccc1S2(=O)=O -15%
CC(C)c1ccc(NC(=O)c2cc3sc(Cl)cc3n2C)cc1 10.4%
Cc1cc(C)cc(NC(=O)N2CCC3(CC2)Oc2ccccc2C(=O)N3Cc2ccccc2F)c1 -25.8%
CC1CCc2c(sc3nc(-c4cc5cc(Br)ccc5oc4=O)[nH]c(=O)c23)C1 (stereo not given) -6.01%
O=C(CCS(=O)(=O)c1cccc2nonc12)Nc1c(F)cccc1F -11.7%
CCOc1ccc(NC(=O)c2c(NCc3cccnc3)sc3c2CCCC3)cc1 40.7%
CCOC(=O)c1ccc(CN(Cc2ccc(F)cc2)S(=O)(=O)c2ccc(F)c(C(=O)Nc3ccc(Cl)cc3F)c2)cc1 -31.3%
O=S(=O)(Nc1ccc(Br)cc1F)c1ccc2nc(-c3ccccc3)[nH]c2c1 -7.37%
COc1ccc(CCn2c(=O)c3cccnc3n(CC(=O)Nc3ccc(C)c(F)c3)c2=O)cc1OC 9.67%
COc1ccc(-c2nnc(SCC(=O)Nc3cccc(C(F)(F)F)c3)nc2-c2ccc(OC)cc2)cc1 -1.19%
CCOc1ccc(OCC)c(NC(=O)C2CCN(S(=O)(=O)c3c(C)noc3/C=C/c3ccccc3F)CC2)c1 -7.74%
COc1cccc(Cn2c(CNS(=O)(=O)c3ccc(F)c(Cl)c3)nc3cccnc32)c1 -23%
CC(C)COc1ccc(C(=O)Nc2cc3nn(-c4ccccc4)nc3cc2Cl)cc1 -3.89%
CCc1nn2c(=O)cc(COc3ccc(/C=C(\C#N)C(=O)Nc4ccc(F)cc4)cc3OC)nc2s1 2.3%
O=S(=O)(NCC(c1cccs1)S(=O)(=O)c1ccccc1)c1ccc(F)cc1 (stereo not given) -20.8%
CCOc1ccccc1CNC(=O)c1cc(-c2ccc(Cl)s2)nc2ccccc12 -30.9%
Cc1ccccc1-c1nn2c(=O)cc(CN3CCN(C(=O)/C=C/c4ccccc4)CC3)nc2s1 -4.69%
CCc1ccc(NC(=O)Cn2c(=O)n(CCC(=O)N3CCc4ccccc4C3)c(=O)c3ccccc32)cc1 -12.8%
CCc1ccc2oc(C(=O)Nc3nc(-c4ccc(F)cc4)ns3)c(C)c2c1 2.04%
Cc1cc2c(n1-c1ccc(C(=O)NCCc3ccc(Cl)cc3)cc1)CCC(C)C2 (stereo not given) 0.489%
COc1ccc(-c2cc(C(F)(F)F)n3nc(C(=O)OC(C)C)cc3n2)cc1 -15.6%
Cc1c(C2=CCN(S(=O)(=O)c3ccc(Cl)cc3)CC2)c2ccccc2n1CC(=O)N1CCCC1 -29.5%
CCC1CCCCN1C(=O)CSc1n[nH]c(-c2ccccc2)n1 (stereo not given) 10.8%
COc1ccc(N(Cc2nnc3n2CCCCC3)C(=O)Nc2ccc(Cl)cc2)cc1Cl -10.4%
CNC(=O)c1ccc(-c2nc(CN3CCc4ccccc43)c(C)o2)cc1 -22.8%
CC(=O)Nc1ccc(Nc2nc3ccc(Cl)cc3n3cnnc23)cc1 -15.4%
Cc1cccc(OCC(=O)Nc2ccc(OCc3cc(=O)n4cc(C)ccc4n3)cc2)c1 0.59%
Cc1c(Cl)cccc1NC(=O)C(C)n1nc(C)c2c(C)n(-c3ccccc3)nc2c1=O (stereo not given) -26.3%
O=C1CC(c2nnc(Cc3ccc(F)cc3)o2)CN1c1ccccc1 (stereo not given) -10.8%
Cc1cccc(NC(=O)CSc2cn(CC(=O)N3CCC(C)CC3)c3ccccc23)c1C -5.26%
Fc1ccccc1-n1ncc2c1ncn1nc(COc3ccc(Cl)cc3)nc21 -8.67%
COc1ccccc1CNC(=O)c1cc(S(=O)(=O)N2CCCCCC2)cn1C -17.8%
Cc1cccc(N2CCN(S(=O)(=O)c3nnc(NC(=O)c4ccc(Cl)cc4)s3)CC2)c1 -10.7%
COc1ccc(OC)c(NC(=O)c2ccc3nc(C(C)C)oc3c2)c1 -11%
COc1ccccc1N1CCN(C(=O)c2cc3c(s2)-c2ccccc2OC3)CC1 -32.9%
